Results on two substances are retold here after patent US20260029399A1.

Experiment [1] concerns the target murine CD3 on TCR-transduced 58α-β- mouse T hybridoma cells (murine) (UniProt P22646). Put plainly: cell-based or functional assay.
The target of experiment [2] is murine TCR constant region on TCR-transduced 58α-β- mouse T hybridoma cells (murine) (UniProt A2KF29). The experiment can be described thus: cell-based or functional assay.

Consider “mouse anti-CD3 Epsilon Clone 145-2C11 Fab antibody (light chain-P2A-heavy chain, PDGFR transmembrane”, for which the transduction of 58α-β- mouse T hybridoma cells in experiment [1] is 12.8%.

Consider “mouse anti-TCR Beta Clone H57-597 Fab antibody (light chain-P2A-heavy chain, PDGFR transmembrane dom”, for which the transduction of 58α-β- mouse T hybridoma cells in experiment [2] is 11%.
